Source: the supplement of paper PMC12217912
The list shows a part of the results. The full chains were built here from the parent and the listed change. Inactive controls read about 0.05.

B1: TEV protease; numbered along this chain (parent)
chain: MGESLFKGPRDYNPISSSICHLTNESDGHTTSLYGIGFGPFIITNKHLFRRNNGTLVVQSLHGVFKVKDTTTLQQHLVDGRDMIIIRMPKDFPPFPQKLKFREPQREERICLVTTNFQTKSMSSMVSDTSCTFPSGDGIFWKHWIQTKDGQCGSPLVSTRDGFIVGIHSASNFTNTNNYFTSVPKNFMELLTNQEAQQWVSGWRLNADSVLWGGHKVFMVKPEEPFQPVKEATQL

Variants of: B1
Assay: raw area under fraction-flipped curve 0-4 h after induction (AUC4h, not background-subtracted), DNA-recorder readout of cleavage of the substrate (dimensionless); higher = more cleavage of the substrate by the protease variant
Settings: temperature: 34 °C; time window: 0-4 h after rhamnose induction
Protocol: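 In vivo DNA recorder in E. coli TOP10(DE3) ΔrhaA at 34 °C. Each TEVp single-site mutant (parent TEVp 0) is paired with a single-site variant of the 7-mer TEVs (canonical ENLYFQ|S). The substrate sits between flexible linkers in a Bxb1-sfGFP-TEVs-SsrA fusion, so cleavage stabilises Bxb1 and speeds flipping of a recombination array, read by NGS. The value is the raw area under the fraction-flipped curve over 0-4 h after rhamnose induction (AUC4h), with ≥20 reads per time point. It is not background-subtracted; inactive controls average about 0.047.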
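Further: Bxb1 expression induced with 0.2% (w/v) L-rhamnose at OD600 near 0.5, cultures sampled hourly, flipped fraction per protease–substrate barcode pair counted by paired-end Illumina sequencing.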

| Variant | area with substrate ENLYFAS | area with substrate ENLYFDS | area with substrate ENLYFES | area with substrate ENLYFFS | area with substrate ENLYFGS | area with substrate ENLYFHS | area with substrate ENLYFIS | area with substrate ENLYFKS | area with substrate ENLYFMS | area with substrate ENLYFNS | area with substrate ENLYFPS | area with substrate ENLYFSS | area with substrate ENLYFTS | area with substrate ENLYFVS | area with substrate ENLYFWS | area with substrate ENLYFYS | area with substrate ENLYFCS | area with substrate ENLYFLS | area with substrate ENLYFRS |
| --- | --- | --- | --- | --- | --- | --- | --- | --- | --- | --- | --- | --- | --- | --- | --- | --- | --- | --- | --- |
| E223R | 0.064 | 0.0584 | 0.0571 | 0.0708 | 0.0537 | 0.0597 | 0.0657 | 0.0457 | 0.0763 | 0.0772 | 0.0646 | 0.0596 | 0.0588 | 0.0347 | 0.0435 | 0.0473 | – | – | – |
| F226K | 0.0601 | 0.0625 | 0.062 | 0.0714 | – | 0.0535 | 0.0439 | 0.0447 | 0.0612 | 0.0615 | 0.0604 | 0.0691 | 0.0636 | 0.0472 | 0.0618 | 0.0523 | 0.0094 | 0.0624 | 0.0544 |
| Q227T | 0.0517 | 0.0624 | – | 0.0841 | – | 0.0401 | 0.0606 | 0.0563 | – | 0.0678 | 0.0616 | – | 0.0553 | – | – | – | 0.0527 | – | – |
| K230T | 0.0512 | – | 0.0721 | 0.0746 | 0.0716 | – | 0.0585 | – | 0.0635 | 0.0719 | 0.0611 | 0.0509 | 0.061 | – | 0.0695 | – | 0.0498 | 0.0508 | 0.0542 |
| K230W | 0.0618 | – | 0.0638 | 0.0723 | 0.0494 | – | 0.0549 | 0.0604 | 0.073 | 0.0626 | 0.0614 | 0.0413 | 0.0348 | 0.0502 | 0.0604 | – | 0.0578 | – | 0.0567 |
| G8V | – | – | – | – | – | 0.0639 | – | – | 0.089 | – | – | – | – | – | – | – | 0.0873 | 0.0653 | – |
| P9G | – | 0.0553 | 0.0654 | 0.075 | 0.06 | 0.0651 | 0.0599 | – | 0.0651 | – | 0.0568 | – | 0.0594 | 0.0625 | – | – | 0.0666 | – | – |
| P9V | – | – | 0.0529 | – | – | 0.0714 | 0.0546 | 0.0635 | – | 0.0636 | – | – | 0.0647 | 0.057 | 0.0631 | – | 0.0424 | – | 0.0519 |
| Y12D | – | 0.0405 | 0.0657 | 0.0593 | – | – | 0.046 | 0.0538 | 0.0403 | 0.0594 | 0.051 | – | 0.0753 | 0.0544 | – | – | 0.057 | – | 0.0535 |
| Y12E | – | 0.0568 | 0.0751 | 0.068 | 0.0684 | 0.0198 | 0.0578 | 0.0567 | 0.0595 | – | 0.0514 | 0.0508 | 0.0657 | 0.0753 | 0.0515 | 0.0675 | 0.065 | 0.058 | 0.0584 |
| P14S | – | 0.0557 | 0.0584 | 0.0666 | 0.0685 | 0.0595 | 0.0639 | 0.0601 | 0.0683 | 0.0594 | 0.0537 | 0.0521 | 0.0563 | 0.0672 | 0.0442 | 0.0635 | 0.055 | 0.0594 | 0.0483 |
| S17R | – | – | 0.0576 | 0.0692 | – | 0.0599 | 0.0546 | 0.032 | 0.0938 | 0.046 | 0.0622 | 0.063 | 0.0538 | 0.0687 | 0.0713 | 0.0599 | 0.0688 | 0.0766 | 0.052 |
| S18L | – | – | 0.0653 | 0.0641 | 0.0658 | 0.0551 | 0.0815 | 0.0557 | 0.0652 | 0.0644 | 0.0527 | 0.0572 | 0.0493 | 0.0471 | 0.0597 | 0.0568 | 0.0584 | – | – |
| I19C | – | 0.034 | 0.0635 | 0.0641 | – | 0.0444 | 0.0543 | 0.0558 | – | 0.0716 | 0.0639 | – | 0.0457 | 0.0468 | 0.056 | 0.0496 | 0.0455 | – | 0.0477 |
| L22R | – | – | 0.0378 | 0.048 | 0.059 | 0.0182 | 0.0496 | 0.0307 | 0.0461 | – | 0.0434 | 0.0474 | – | – | 0.0379 | 0.0543 | 0.0562 | 0.0453 | 0.0424 |
| S26G | – | 0.0477 | 0.0672 | 0.0753 | – | – | 0.0483 | – | 0.0565 | – | – | – | – | 0.0554 | – | – | 0.0674 | – | – |
| G28N | – | 0.0553 | 0.0696 | 0.0617 | – | 0.0818 | 0.0562 | 0.0577 | – | 0.0678 | 0.0592 | 0.0643 | 0.0535 | 0.0446 | – | 0.0648 | 0.0533 | 0.0708 | 0.0676 |
| T30G | – | 0.0594 | 0.0621 | – | – | – | 0.0431 | 0.0451 | 0.0624 | 0.0603 | 0.0558 | 0.0595 | 0.0994 | – | – | 0.0521 | 0.0617 | – | 0.0386 |
| Y34F | – | 0.0615 | 0.0354 | – | – | – | 0.0607 | 0.0576 | 0.0834 | 0.0611 | 0.0482 | 0.0587 | 0.0579 | – | – | 0.0869 | 0.0612 | – | 0.0734 |
| Y34Q | – | – | – | – | – | 0.0345 | – | 0.0736 | 0.0328 | – | 0.0786 | – | – | – | 0.0589 | 0.067 | 0.0547 | – | – |
| T44C | – | – | 0.0768 | 0.0701 | 0.0713 | 0.0587 | 0.0534 | 0.0734 | 0.0509 | – | 0.0706 | 0.0539 | 0.0687 | – | 0.0535 | 0.0557 | 0.069 | – | 0.0554 |
| T44Y | – | 0.0422 | 0.053 | 0.0511 | 0.0437 | 0.0556 | 0.0291 | 0.0357 | – | 0.0443 | 0.0416 | 0.0459 | 0.0401 | 0.0355 | 0.0553 | – | 0.0352 | – | 0.0374 |
| K46Q | – | – | 0.0616 | 0.0672 | – | – | 0.0526 | 0.0485 | 0.0587 | 0.0632 | 0.0497 | 0.0767 | – | 0.0641 | – | 0.039 | 0.0502 | 0.0486 | – |
| H47S | – | 0.0657 | 0.0523 | – | – | 0.062 | 0.0586 | 0.0695 | 0.0707 | 0.0651 | 0.0588 | – | 0.0635 | 0.0531 | 0.0595 | 0.0607 | 0.0518 | 0.0623 | 0.0631 |
| N52H | – | – | 0.0438 | – | 0.0652 | 0.0491 | 0.0552 | 0.0646 | 0.0479 | 0.0614 | 0.081 | – | – | – | – | – | 0.0526 | – | 0.0608 |
| K66V | – | – | – | 0.0571 | – | 0.0304 | 0.0583 | – | – | 0.0897 | – | – | – | – | 0.0573 | – | 0.0455 | 0.0629 | 0.0869 |
| K68E | – | 0.0708 | – | 0.0895 | 0.0537 | – | 0.0538 | 0.0642 | 0.0681 | 0.0527 | 0.0596 | 0.05 | 0.0685 | 0.0699 | 0.0606 | 0.0357 | 0.0676 | 0.0722 | 0.0622 |
